The values below come from PubChem BioAssay AID1745853 (National Center for Advancing Translational Sciences (NCATS), 2022).

What all share (assay): Primary Screen for Target Class Profiling of Small Molecule Inhibitors of Methyltransferases
In test [1] the target is Glycine N-methyltransferase (Homo sapiens) (UniProt Q14749). The settings on record: purified enzyme, MTase-Glo SAH luminescence; measured here: GNMT inhibition; at 40 µM; stronger effect = lower value. In a few lines: (§1)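 Each enzyme was reacted with SAM and its substrate, with compounds tested once at 40 uM; SAH formed was read by MTase-Glo luminescence.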
Test [2] deals with Guanidinoacetate N-methyltransferase (Homo sapiens) (UniProt Q14353). The settings on record: purified enzyme, MTase-Glo SAH luminescence; measured here: GAMT inhibition; at 40 µM; stronger effect = lower value. The procedure, abridged:
as §1

Test [3] addresses Histamine N-methyltransferase (Homo sapiens) (UniProt P50135). Conditions: purified enzyme, MTase-Glo SAH luminescence; measured here: HNMT inhibition; at 40 µM; stronger effect = lower value. The procedure, abridged:
as §1

The target of test [4] is Nicotinamide N-methyltransferase (Homo sapiens) (UniProt P40261). The settings on record: purified enzyme, MTase-Glo SAH luminescence; measured here: NNMT inhibition; at 40 µM; stronger effect = lower value. The procedure, abridged: as §1
Test [5] addresses Phenylethanolamine N-methyltransferase (Homo sapiens) (UniProt P11086). The settings on record: purified enzyme, MTase-Glo SAH luminescence; measured here: PNMT inhibition; at 40 µM; stronger effect = lower value. In a few lines:
as §1

Structures are written as SMILES. Several values for one entry are separate records, joined by “and”; a condition that tells them apart may be missing. Identical values can stand only once. The list shows a part of the results. Further columns of the screen follow, without active or inactive calls.
On the % scale 0 is the no-effect control and ±100 the full control effect.

On to `CCOCCCNC(=O)N1Cc2ccccc2-n2cccc2C1c1ccc(C(C)C)cc1` (stereo unspecified), for which the activity change, negative = inhibition was -4.74% in test [1]; 4.58% in test [2]; -3.67% in test [3]; -12.6% in test [4]; -0.005% in test [5].

In the case of `CCOc1ccc(NC(=O)N2Cc3ccccc3-n3cccc3C2c2ccccc2Cl)cc1` (stereo unspecified), the activity change, negative = inhibition in test [1] was 1.66%; in test [2], 1.94%; in test [3], -4.42%; in test [4] it was -1.41%; in test [5], 0.666%.

On to `CCC1=CC2CN3CCc4c([nH]c5ccccc45)[C@@](C(=O)OC)(C2)[C@@H]13`, for which the activity change, negative = inhibition in test [1] was -0.556%; in test [2], -15%; in test [3], -7.99%; in test [4], -29%; in test [5] it was -4.42%.

In the case of `Cc1ccc(NC(=O)N2Cc3ccccc3-n3cccc3C2c2cccs2)cc1F` (stereo unspecified), the activity change, negative = inhibition in test [1] is 10.7%; in test [2], 5.58%; in test [3], 3.31%; in test [4] it was -2.64%; in test [5], 4.31%.

Take `CCc1ccc(C2c3cccn3-c3ccccc3CN2C(=O)Nc2ccc(C)cc2)cc1` (stereo unspecified): the activity change, negative = inhibition was 8.41% in test [1]; 3.47% in test [2]; 1.88% in test [3]; -1.33% in test [4]; -0.325% in test [5].

`NC(CCCCCP(=O)(O)O)C(=O)O` (stereo unspecified): the activity change, negative = inhibition in test [1] is 9.5%; in test [2], 8.8%; in test [3], 11.8%; in test [4], -1.6%; in test [5] it was 4.06%.

For `CCC1c2cccn2-c2ccccc2CN1C(=O)Nc1ccc(F)cc1F` (stereo unspecified), the activity change, negative = inhibition in test [1] is 3.57%; in test [2], 2.86%; in test [3], 1.71%; in test [4], -1.46%; in test [5], -2.35%.

As to `CCC1c2cccn2-c2ccccc2CN1C(=O)Nc1cccc(Br)c1` (stereo unspecified), the activity change, negative = inhibition was -1.63% in test [1]; 0% in test [2]; 5.53% in test [3]; 1.4% in test [4]; 6.76% in test [5].

Consider `CCOc1ccc(C2c3cccn3-c3ccccc3CN2C(=O)Nc2ccc(CC)cc2)cc1` (stereo unspecified), for which the activity change, negative = inhibition in test [1] was -1.42%; in test [2] it was 3.32%; in test [3], -3.08%; in test [4], -6.58%; in test [5] it was -0.503%.

Consider `COc1ccc(C2c3cccn3-c3ccccc3CN2C(=O)Nc2ccc(F)cc2)cc1` (stereo unspecified), for which the activity change, negative = inhibition in test [1] was 9.82%; in test [2], 2.37%; in test [3], 2.55%; in test [4] it was -1.73%; in test [5], 4.64%.

Turning to `CN1Cc2c(ccc3c2OCO3)[C@@H]2[C@H]1c1cc3c(cc1C[C@@H]2O)OCO3`, the activity change, negative = inhibition in test [1] is -2.89%; in test [2], -1.36%; in test [3] it was 6.32%; in test [4], -20.5%; in test [5] it was -2.77%.

On to `O=C(NC1CCCC1)N1Cc2ccccc2-n2cccc2C1c1cccs1` (stereo unspecified), for which the activity change, negative = inhibition in test [1] is 0.856%; in test [2], 1.23%; in test [3], -5.42%; in test [4] it was -7.83%; in test [5], -0.985%.

For `CCc1ccc(C2c3cccn3-c3ccccc3CN2C(=O)NCc2ccccc2)cc1` (stereo unspecified), the activity change, negative = inhibition in test [1] is 8.24%; in test [2] it was 0%; in test [3] it was 0.267%; in test [4], 2.39%; in test [5] it was 4.21%.

For the compound `CN1CCCCC1Cn1cc(C(=O)c2cc([N+](=O)[O-])ccc2I)c2ccccc21` (stereo unspecified), the activity change, negative = inhibition in test [1] was -1.66%; in test [2], -11%; in test [3] it was -16%; in test [4], -46.2%; in test [5], -9.01%.

For `Cc1ccc(C2c3cccn3-c3ccccc3CN2C(=O)Nc2cccc(C)c2C)cc1` (stereo unspecified), the activity change, negative = inhibition was 9.95% in test [1]; 0% in test [2]; -1.46% in test [3]; 0.096% in test [4]; 3% in test [5].

With `Cc1ccccc1NC(=O)N1Cc2ccccc2-n2cccc2C1c1ccccc1` (stereo unspecified), the activity change, negative = inhibition is 8.13% in test [1]; 0% in test [2]; 0.695% in test [3]; -4.91% in test [4]; 1.32% in test [5].

Turning to `COc1ccc(OC)c(NC(=O)N2Cc3ccccc3-n3cccc3C2c2ccccc2)c1` (stereo unspecified), the activity change, negative = inhibition in test [1] was 8.65%; in test [2], 0.497%; in test [3], -3.42%; in test [4], -9.07%; in test [5], -4.16%.

Take `CC[C@H]1/C=C\C=C/C[C@@H](C)[C@H](O)[C@@](C)(O)C(=O)[C@@H](C)[C@H](O)[C@@H](C)C(=O)[C@@H](C)[C@H](O)[C@@H](C)/C=C\C(=O)O[C@@H]2[C@H](C)[C@H](CC1)O[C@]1(CC[C@H](C)[C@H](C[C@@H](C)O)O1)[C@H]2C`: the activity change, negative = inhibition in test [1] is -1.29%; in test [2], 21.6%; in test [3] it was 6.72%; in test [4], 5.56%; in test [5] it was 8.47%.

Turning to `C[C@@H]1O[C@@H](O[C@H]2CC[C@@]3(C)C(CC[C@@H]4C3CC[C@]3(C)[C@@H](C5=CC(=O)OC5)CC[C@]43O)C2)[C@H](O)[C@H](O)[C@H]1O` (stereo partly specified), the activity change, negative = inhibition in test [1] was 5.32%; in test [2] it was -0.203%; in test [3] it was 8.91%; in test [4], -9.38%; in test [5], 1.68%.

For `CCc1ccc(C2c3cccn3-c3ccccc3CN2C(=O)Nc2cc(C)ccc2OC)cc1` (stereo unspecified), the activity change, negative = inhibition in test [1] was found to be 14.3%; in test [2], 0%; in test [3], 6.15%; in test [4] it was 2.45%; in test [5], 8.19%.

Consider `COC1CC(OC2CCC3(C)C(CCC4C3CCC3(C)C(C5=CC(=O)OC5)C(OC(C)=O)CC43O)C2)OC(C)C1OC1OC(CO)C(O)C(O)C1O` (stereo unspecified), for which the activity change, negative = inhibition in test [1] is 0.889%; in test [2], -2.79%; in test [3], 8.79%; in test [4], -12.8%; in test [5] it was 2.5%.

In the case of `C[C@](O)(CS(=O)(=O)c1ccc(F)cc1)C(=O)Nc1ccc(C#N)c(C(F)(F)F)c1`, the activity change, negative = inhibition is 1.1% in test [2], -15.5% in test [4] and 1.61% in test [5].

As to `CCOc1ccc(C2c3cccn3-c3ccccc3CN2C(=O)Nc2ccc(OC)cc2OC)cc1` (stereo unspecified), the activity change, negative = inhibition in test [1] is -1.25%; in test [2], 1.84%; in test [3] it was 2.46%; in test [4], -1.59%; in test [5], 3.85%.

Consider `COC(=O)N1CCN(C(=O)Cc2ccc(Cl)c(Cl)c2)C(CN2CCCC2)C1` (stereo unspecified), for which the activity change, negative = inhibition in test [1] was -3.27%; in test [2], 6.54% and 10.8%; in test [3], 5.62%; in test [4], -10.8% and -8.93%; in test [5], 3.79% and -1.49%.

`O=C(NCc1ccc(F)cc1)N1Cc2ccccc2-n2cccc2C1c1ccccc1` (stereo unspecified): the activity change, negative = inhibition is 3.98% in test [1]; 3.94% in test [2]; -0.071% in test [3]; -0.814% in test [4]; 5.57% in test [5].

In the case of `CC(C)NC(C)Cc1ccc(I)cc1` (stereo unspecified), the activity change, negative = inhibition in test [1] is -12.8%; in test [2] it was 5.95%; in test [3], -19.4%; in test [4] it was -5.84%; in test [5], 2.23%.

For `CC(C)=CCCC1(C)C=Cc2c(O)c3c(c(CC=C(C)C)c2O1)OC12C(=CC4CC1C(C)(C)OC2(C/C=C(/C)C(=O)O)C4=O)C3=O` (stereo unspecified), the results for the activity change, negative = inhibition in test [2], in test [4] and in test [5] were 1.68%, -35.4% and -2.35%, respectively.

Turning to `O=C(O)C(=O)c1cn(Cc2ccccc2)c2ccc(-c3ccc(OC(F)(F)F)cc3)cc12`, the activity change, negative = inhibition is -13.3% in test [1]; 0.295% in test [2]; 9.15% in test [3]; -23.6% in test [4]; -8.44% in test [5].

On to `CC[C@H]1C2CC3[C@@H]4N(C)c5ccccc5[C@]45C[C@@H]([C@H]2[C@H]5O)N3[C@@H]1O`, for which the activity change, negative = inhibition in test [1] is -2.67%; in test [2], -8.39%; in test [3] it was 0.996%; in test [4], -17.3%; in test [5], -7.56%.

Turning to `COCCCNC(=O)N1Cc2ccccc2-n2cccc2C1c1ccc(N(C)C)cc1` (stereo unspecified), the activity change, negative = inhibition in test [1] was 5.64%; in test [2] it was 4.18%; in test [3], -9.36%; in test [4], -2.43%; in test [5], 2.18%.
